Test results from PubChem BioAssay AID540317 (National Center for Advancing Translational Sciences (NCATS), 2011).
Out of some 390,000 compounds screened, about 2,200 (0.56%) were called active. The shares of active, inactive and inconclusive entries below differ from those in the screen. Calls follow the shape of the dose curve; as a rule, active = well fitted inhibition curve with a large enough effect; inconclusive = small, poorly fitted or top-dose-only effect; inactive = no such curve, though single readings can be large or run the other way. A potency beside an inconclusive call is a rough fit, not a confirmed value.

Biological target: Chromobox protein homolog 1 (Homo sapiens) (UniProt P83916)
Assay: HTS for Inhibitors of HP1-beta Chromodomain Interactions with Methylated Histone Tails; also: nearly all actives have a fitted effect of over 70% in size
Settings: AlphaScreen HP1-beta / biotin-H3K9me3 peptide binding; series mostly up to 114 µM; activity change, negative = inhibition: at the top concentration
Procedure, shortened: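 AlphaScreen: HP1-beta (50 nM) preformed 30 min with biotin-H3(1-18)K9me3 peptide (50 nM) in PBS pH 7.4, 0.01% Tween-20. Compound added for 30 min at RT, then streptavidin donor/nickel chelate acceptor beads (10 ug/mL) for 30 min.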
Potency is read from the fitted curve at half-maximal effect; tags tell the direction and shape of the fitted curve.

UniProt P83916, sequence (P83916 whole entry, looked up): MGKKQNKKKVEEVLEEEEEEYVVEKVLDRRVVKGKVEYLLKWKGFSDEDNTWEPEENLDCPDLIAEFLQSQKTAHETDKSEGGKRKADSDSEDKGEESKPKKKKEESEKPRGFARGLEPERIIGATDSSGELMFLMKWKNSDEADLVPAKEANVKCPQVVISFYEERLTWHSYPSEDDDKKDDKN

SMILES | Potency | activity change, negative = inhibition
CC1CN(Cc2ccc(Cl)cc2Cl)CC(C)O1 (stereo not given) | inconclusive: 28.2 µM [inhibitor, partial curve] | –
CCOC(=O)/C(=C\c1cn(C)c2ccccc12)[N+](=O)[O-] | inconclusive: 39.8 µM [inhibitor, partial curve, poor fit] | –
Cc1ccccc1SCC(=O)OCC(=O)Nc1ccc(N(C)C)cc1 | inconclusive: 20 µM [inhibitor, full curve] | –
O=c1[nH]n2c(=O)c3c([nH]c2c1N=Nc1cccc(Cl)c1)CCC3 | inconclusive: 44.7 µM [inhibitor, partial curve, poor fit] | –
COc1ccc(NC(=S)NNc2ccc(C(=O)O)cc2)cc1 | inconclusive: 70.8 µM [inhibitor, single point] | –
COc1ccccc1NS(=O)(=O)c1ccc(O)cc1 | inconclusive: 8.91 µM [inhibitor, single point] | –
O=C(NCC1COCCO1)c1ccc2nc(Cc3cccc(Cl)c3)oc2c1 (stereo not given) | – | inactive: 23%
COCCn1c(-c2ccccc2)csc1=Nc1cccnc1 | inconclusive: 20 µM [inhibitor, full curve] | –
CN1/C(=C\C(=S)NC(=O)c2cccc(Br)c2)C(C)(C)c2ccccc21 | inconclusive: 1.78 µM [inhibitor, full curve, poor fit] | –
COC(=O)c1ccc(C(c2c(C)[nH][nH]c2=O)c2c(C)[nH][nH]c2=O)cc1 | – | inactive: 21.6%
Cc1ccc(OCC(=O)N/N=C2/SCC(=O)N2Cc2ccccc2)cc1 | inconclusive: 20 µM [inhibitor, partial curve, poor fit] | –
COCCCNCCCOc1ccc(C(C)(C)c2ccccc2)cc1 | inconclusive: 15.8 µM [inhibitor, partial curve, poor fit] | –
COc1cc(OC)c2c(C)cc(=O)oc2c1C(CCN1CCCCC1)c1ccc(N(C)C)cc1 (stereo not given) | inconclusive: 44.7 µM [inhibitor, partial curve] | –
CCCCNC(=S)N/N=C/c1ccc(C#N)cc1 | inconclusive: 100 µM [inhibitor, single point] | –
Cc1c(Cl)cccc1-c1ccc(CNCCCSc2nnnn2C)o1 | inconclusive: 50.1 µM [inhibitor, partial curve, poor fit] | –
O=C(c1ccc([N+](=O)[O-])cc1)N1CCN=C1SCc1ccccc1 | inconclusive: 50.1 µM [inhibitor, partial curve] | –
NC(=O)C1CCCN1S(=O)(=O)c1ccc2ccccc2c1 (stereo not given) | – | inactive: 15.7%
O=C(Nc1cccc(S(=O)(=O)NC2=NCCC2)c1)c1ccccc1 | – | inactive: 33.9%
CC(C)[C@H](NC(=O)c1ccccc1)C(=O)OCc1nnc(-c2ccccc2)o1 | inconclusive: 31.6 µM [inhibitor, full curve] | –
CC(C)(C)OC(=O)N/N=C/c1ccc(Br)cc1 | – | inactive: 20%
CN(C)c1ccc(CN2CCCC(O)C2)cc1 (stereo not given) | – | inactive: 26.8%
CCCCCNCC(=O)Nc1cc(C(F)(F)F)ccc1OCCOC | inconclusive: 50.1 µM [inhibitor, partial curve, poor fit] | –
COc1cc2c(cc1OC)C(C)N(Cc1ccc3c(c1)OCO3)CC2 (stereo not given) | inconclusive: 39.8 µM [inhibitor, partial curve] | –
CCN(CCCNC(=O)CSc1cc(=O)n(CC)c2ccccc12)c1ccccc1 | inconclusive: 44.7 µM [inhibitor, partial curve, poor fit] | –

SMILES | Potency | activity change, negative = inhibition
N#CC1=C(SCC(=O)NCc2ccccc2)NC(=O)CC1c1ccco1 (stereo not given) | inconclusive: 5.62 µM [inhibitor, full curve, poor fit] | –
COC(=O)C1=C(C)N(CCCC(=O)O)C(=O)NC1c1ccc(Cl)cc1 (stereo not given) | – | inactive: 60.1%
CCc1ccc(NC(=O)CSc2nc3c(c(=O)n(C)c(=O)n3C)n2C)cc1 | – | inactive: 42.6%
Cc1ncc([N+](=O)[O-])n1CC(=O)Nc1ccc(F)c(Cl)c1 | – | inactive: 34.1%
CCN(CC)c1ccc(C(=C2C=CC(=[N+](CC)CC)C=C2)c2ccccc2)cc1 | active: 10 µM | –
Cc1cccc(NC(=S)N(C)C)c1C | – | inactive: 32.9%
COc1cccc(OC)c1C(=O)N1CCN(Cc2ccccc2C(F)(F)F)CC1 | inconclusive: 15.8 µM [inhibitor, partial curve, poor fit] | –
O=C(CN1CCOCC1)Nc1ccc(OC(F)(F)F)cc1 | inconclusive: 14.1 µM [inhibitor, partial curve, poor fit] | –
Cc1ccc2nc(Cn3cc(C(F)(F)F)ccc3=O)cc(=O)n2c1 | inconclusive: 89.1 µM [inhibitor, single point] | –
O=C1c2ccccc2C(=O)c2c1cccc2N1CCN(Cc2ccccc2)CC1 | inconclusive: 31.6 µM [inhibitor, full curve, poor fit] | –
CCSc1ncc(/C=N/Nc2ccccc2)n1C | inconclusive: 8.91 µM [inhibitor, full curve] | –
CCN(CC)CCCN(C(=O)c1ccc(Br)cc1)c1nc(-c2ccc(OC)cc2)cs1 | inconclusive: 31.6 µM [inhibitor, partial curve, poor fit] | –
O=C(CN1CCN(c2ccccc2Cl)CC1)NC1CCCc2ccccc21 (stereo not given) | inconclusive: 50.1 µM [inhibitor, partial curve] | –
COCCN=C1N[C@@H](c2cccc(C(F)(F)F)c2)C(C(=O)OC)=C(C)N1Cc1ccccc1 | – | inactive: 2.18%
CC1=CC(C)(C)N(C(=O)c2ccc(F)cc2)c2cc3c(cc21)OCO3 | inconclusive: 63.1 µM [inhibitor, single point] | –
CS(=O)(=O)c1ccc2nc(NC(=O)CN3CCCCCC3)sc2c1 | inconclusive: 56.2 µM [inhibitor, partial curve] | –
Cn1c(SCc2ccc(C#N)cc2)nnc1-c1cccc(Cl)c1 | – | inactive: 15.9%
O=C1c2ccccc2-c2ncnc3c(N4CCOCC4)cc(N4CCOCC4)c1c23 | inconclusive: 20 µM [inhibitor, full curve] | –
COc1ccc(N2CC(O)=C(c3n(C)c4ccccc4[n+]3C)C2=N)cc1 | – | inactive: -1.46%
COc1ccc(S(=O)(=O)/N=C2/NC(=O)/C(=C/c3ccco3)S2)cc1 | – | inactive: 12.3%
CN(C)CCCN(C(=O)c1ccc(C(=O)c2ccccc2)cc1)c1nc2cc3c(cc2s1)OCO3 | inconclusive: 56.2 µM [inhibitor, partial curve, poor fit] | –
Nc1c2c(=O)oc(-c3ccccc3)cc2nn1-c1ccccc1 | – | inactive: 17.8%
CCCCc1ccc(Nc2cc(C)nc(-n3nc(C)cc3C)n2)cc1 | – | inactive: 17.5% [at 57 µM]
COc1cc(OC)cc(C(=O)Nc2ccc3nc4c(c(Nc5ccc(OC)c(OC)c5)c3c2)CCCC4)c1 | inconclusive: 14.1 µM [inhibitor, full curve, poor fit] | –

SMILES | Potency | activity change, negative = inhibition
CSc1ccc(CNC(=O)Cn2c(-c3cccs3)cc3cc(F)ccc32)cc1 | – | inactive: 41.8%
CN1CCN(c2ccccc2NC(=O)c2ccc(-c3cccc([N+](=O)[O-])c3)o2)CC1 | inconclusive: 31.6 µM [inhibitor, partial curve, poor fit] | –
O=C(c1cccc(S(=O)(=O)N2CCOCC2)c1)N(Cc1nnc(-c2ccccc2Cl)o1)C1CC1 | – | inactive: -2.6%
COc1ccc(CC(=O)Nc2ncc([N+](=O)[O-])s2)cc1OC | active: 28.2 µM | –
Cn1c(SCC(=O)NC2CCS(=O)(=O)C2)nnc1-c1ccco1 (stereo not given) | – | inactive: 42.2%
Cc1ccc(S(=O)(=O)/C(C#N)=C/c2c(N3CC(C)OC(C)C3)nc3c(C)cccn3c2=O)cc1 (stereo not given) | – | inactive: 8.81%
CCc1ccc(NS(=O)(=O)c2ccc3[nH]cc(C(=O)N4CCc5ccccc54)c(=O)c3c2)cc1 | inconclusive: 35.5 µM [inhibitor, partial curve] | –
Cc1ccc(S(=O)(=O)Nc2cc3c(C(=O)OCc4ccccc4)c(C)oc3c3ccccc23)c(C)c1 | – | inactive: 1.09%
CN(CC(=O)Nc1ccccc1Cl)C(=O)c1ccc(Cl)c(S(=O)(=O)N2CCCCCC2)c1 | – | inactive: 15.5% [at 57 µM]
O=C(/C=C/c1cccs1)NC1CCS(=O)(=O)C1 (stereo not given) | inconclusive: 35.5 µM [inhibitor, single point] | –
CC(=O)Nc1sc(N/N=C\c2ccc(O)cc2)nc1-c1cccs1 | inconclusive: 15.8 µM [inhibitor, full curve] | –
Cc1ccc(CN2CCN(c3ccccn3)CC2)s1 | inconclusive: 35.5 µM [inhibitor, single point] | –
Cc1ccc(S(=O)(=O)C(CNC(=O)COc2ccccc2)c2cccs2)cc1 (stereo not given) | active: 20 µM | –
CCCn1c(COc2cccc(C)c2)nc2ccccc21 | – | inactive: 97.2%
Cc1[nH][nH]c(=O)c1C(c1c(C)[nH][nH]c1=O)c1cn(Cc2ccc(Cl)c(Cl)c2)c2ccccc12 | inconclusive: 50.1 µM [inhibitor, partial curve, poor fit] | –
O=C(CSc1ccccc1C(=O)O)c1ccc([N+](=O)[O-])cc1 | inconclusive: 5.01 µM [inhibitor, full curve] | –
O=C(CSc1ccc(-c2ccncc2)nn1)N1CCN(c2ccccc2)CC1 | – | inactive: 25.4%
CN(N)c1ccc2c(C(F)(F)F)cc(C(F)(F)F)nc2n1 | – | inactive: -15.4%
O=C1/C(=C\c2cccc([N+](=O)[O-])c2O)SC(=S)N1Cc1ccccc1 | inconclusive: 10 µM [inhibitor, full curve, poor fit] | –
Clc1ccc(NC2(c3nnnn3C3CCCCC3)CCCCC2)cc1 | inconclusive: 39.8 µM [inhibitor, single point] | –
O=C1NC(=S)S/C1=C\C=C\c1ccc([N+](=O)[O-])o1 | inconclusive: 31.6 µM [inhibitor, partial curve, poor fit] | –
Cc1cc(C(=O)N/N=C/c2ccc(O)c(O)c2O)c(C)n1-c1ccccc1 | inconclusive: 14.1 µM [inhibitor, partial curve] | –
